Data on 167 variants can be found in the RNAGym collection of RNA variant scans (doi:10.7554/elife.90254).

Sequences and labels used below:
B1: LINE1-full (parent)
chain: UACGUAGGUGGUUUUCCCCUGAUAGUGCUAAGGGGGCCUGGAAGUUUGGACUGGGCAGAGCUCAACACAGCGUGGCAAAGUGGCUGUGGCUAGACUGCCUCUCUGGAUUCCUCGUCACUCAGCAGGGCAUCUCUGAGAGAAAUGCC

The source gives no read counts; variants with many changes may rest on few reads.

The data set covers variants of B1. Description: self-cleavage, relative activity (ratio to wild type); higher = more cleavage; in vitro, sequencing; the parent is a self-cleaving ribozyme.
As for A50G U81A A94U A107U U130C, the self-cleavage came to 0.54. Turning to U14C A69G U108C, the self-cleavage was found to be 0.37.

U13C U26C A64U U104A U112C A140G: the self-cleavage came out at 0.11.

A2G A77G A141G: the self-cleavage turned out to be 0.8.

On to C28U A64G C128U, for which the self-cleavage is 0.13. With U14C U39A A142G, the self-cleavage was 1.34. Regarding U15C A22G G34A, the self-cleavage stood at 0.35.

Turning to G4A A50G C61G U119A, the self-cleavage stood at 0.05. A24G U26C C120U: the self-cleavage turned out to be 1.59. For the variant C101U U112C A136G, the self-cleavage is 2. Turning to A43G U46A C63U U91A, the self-cleavage was 0.12. A67U A129G U132C: the self-cleavage turned out to be 0.11. In the case of U39C U46C C71U U73A, the self-cleavage came to 0.31.

In the case of G36A A94G U115A, the self-cleavage was 0.13.

Turning to G32A U52C A57G U81A U85A A142G, the self-cleavage came out at 0.04.

As to U47A A59G U96C, the self-cleavage was determined as 0.08.

As to U62A A121G A138G, the self-cleavage was 0. For A65G U112C U130C A140G, the self-cleavage is 0. Under C3G A31G U39A U108C A140U stands 0.21; under A30U U91G U115C A136G A140G, 0; under C3U U46A U87A A140G A142G, 0.23. Under A2G A6G U13C A65G stands 0.63; under G34A C90U U96C, 0.07. Under A64G U104A A124G A138G stands 0.41. Consider G4C U5C U20C A77U A92G, for which the self-cleavage was 0.78.

Take A2G U13C U29A A79G: the self-cleavage worked out at 0. On to A77G U81C U115A, for which the self-cleavage was found to be 1.72.

Turning to U20A C38A U39A, the self-cleavage stood at 0.75. On to U14C A22U U87A U119C A136U, for which the self-cleavage worked out at 0.13. As to G36C G89U U102C, the self-cleavage was determined as 0.03. Turning to U87A A121G U134C A142G, the self-cleavage is 0. As to A94C U130C A136G, the self-cleavage was 0.

With A42U A59G A129U U132C, the self-cleavage was 0.19. Under U14C U20A A43G A121G stands 1.02.

Turning to U15C A22G A67C U87C, the self-cleavage is 0.

As for C17U A57U A129U U130C, the self-cleavage was 0.13. Under A42G U52A A94G U143C stands 0.16. As for A30G A57U A69G, the self-cleavage turned out to be 0.

Consider U20C A42U U73A, for which the self-cleavage worked out at 1.

In the case of G7U U14C A77G C84A A142G, the self-cleavage amounted to 0.38.

In the case of C71U U115C A124G, the self-cleavage was determined as 0.2. For U47A C56U U108C, the self-cleavage was 0.13. Under G4U A57U U81C stands 0.3; under U39C U47A U130C, 1.13. In the case of U13C G34A U119A, the self-cleavage came out at 1.81.

Consider U15C A24C U46C, for which the self-cleavage was 1.31. As to A2G G7A U46C, the self-cleavage was determined as 1.56. With U14C U26C U119A, the self-cleavage was 1.09.

As for G40A U130C A141G, the self-cleavage amounted to 0.8. As for A65G U112C G125A, the self-cleavage stood at 0.04. Next, U15C U26A U73A A78U U130C: 1.86; U12C A59G G88A: 0.23; G8A A59G A77G U85A: 0.2. For U26C A50G U109G, the self-cleavage stood at 0.71.

With U15A A43G U45C U100A U130C, the self-cleavage is 0.29. In the case of G53A G75C U96A, the self-cleavage is 0.05.

With U26G G60U C101U, the self-cleavage was found to be 0.11.

Consider U1A U13C A43G, for which the self-cleavage worked out at 1.26. Consider C37G U96C U100C, for which the self-cleavage was determined as 0.29. U14C A79C G114A: the self-cleavage came out at 0.59. On to U12G A59U U96A, for which the self-cleavage was found to be 0.08. Take G44A U108C A138G: the self-cleavage is 2.24.

Regarding U14G A67G U81A, the self-cleavage came to 0.66. In the case of G7A A124G A129G, the self-cleavage stood at 1.12. For the variant A6G U9A G11A G97A, the self-cleavage was determined as 0.12. On to U14C A59G U112C, for which the self-cleavage turned out to be 0. Under U47A G72A U102C stands 1.21; under A69U U112C A138U, 0.09. For the variant U26C U46A A78G A124U, the self-cleavage was determined as 1.84. On to A64G A65C A94U, for which the self-cleavage was 0.1. With A31G G114A U132C, the self-cleavage worked out at 1.05. With A31G C111U U134G, the self-cleavage was found to be 0. Consider U9A C19U U73A U115G, for which the self-cleavage was 1.43. Consider G40A A77U A140G, for which the self-cleavage amounted to 0.17. For C56A U104A A129G A136G U143C, the self-cleavage amounted to 0.04. Under U15C U26C A65G G86A stands 0.07; under U14C A69G U130C, 0.37. In the case of U62C U100C A136G U143C, the self-cleavage was found to be 0. As for A2G U29C A140U A142G, the self-cleavage is 0. In the case of U15G A92U A136G A141G, the self-cleavage came out at 0.97. Next, A43G A94U U109C: 0.14; U13G G40A A142U: 0.58; U14C U20A A57U U73C A140G: 0.1.

Consider U13C U52C A94G, for which the self-cleavage was 0.51.

With A24G A78G A94U U134A, the self-cleavage is 0. Turning to G60A G106U U115C A141C, the self-cleavage was 0. On to U15G C51A U102C, for which the self-cleavage was 1.39. For A65G U100C U102C A117C U143A, the self-cleavage was 0. On to A59G A67G U73A, for which the self-cleavage was 0.04. As to U14C A59G A65G A121G, the self-cleavage is 0. Next, U1C U14A A121G: 0.83; G4C G35A G48A: 0.78; C18G A50U C113U: 0.77. On to U13C C28A A42G U81C, for which the self-cleavage was found to be 1.11. Take U9C U47G A79G: the self-cleavage stood at 1.38. Under U52C U73C A121G C145U stands 1.02. On to U45C G49C A77G A79U U85A A121G, for which the self-cleavage came out at 0.

As to A6G A57G G75A U130C, the self-cleavage came out at 0.4. On to U13C A59G U62C, for which the self-cleavage came out at 0.41. Next, U5C A94G U108C: 1.15; G72A U73A U96C: 0.12. A67U U85C U91C A94G C120U A121G: the self-cleavage was found to be 0.

In the case of A42G U47A C76U U100C U119A U143G, the self-cleavage was determined as 2.62. For U14C A22G G44A A64G A67G A77U A79G A94U U130A, the self-cleavage turned out to be 0. For U13A U81C U102A, the self-cleavage came to 1.89. For the variant G7A U13C U15A U132C, the self-cleavage came out at 1.19. As for A57G A69U A77C, the self-cleavage was 0. Take U13C A24G A79G U134C: the self-cleavage was found to be 0.95. Next, U20A A65U U73A: 0.15; U26C A67G A79G U109A A117C: 1.31. With U29C U91A U115C, the self-cleavage was determined as 0.63.

As to A30G A50U A57G C95A U132G, the self-cleavage came out at 0.17. Under U46C A129U U130C stands 1.34; under A22G G48U G114A, 0.57. For the variant U12A C61U A94G A121G, the self-cleavage is 0. Turning to A57U A67U U96C A138G, the self-cleavage came out at 0.02.

Take A6U A43U U87A: the self-cleavage turned out to be 0.09. For the variant U15C A64G U112A, the self-cleavage is 0.45. Next, G33U A69U A77U: 0.04. On to A42G A50G U143A, for which the self-cleavage was found to be 0.92. A2G U20A A69U: the self-cleavage is 0.33. Consider A22G A57G C98U U108C A136G, for which the self-cleavage was 0.64.

As for U14C U26C A142G, the self-cleavage is 0.98. Take U87A U100C C101A A117U A129U: the self-cleavage was found to be 0.05.

U12C U23A U132C: the self-cleavage turned out to be 1.84.

Turning to U13C U14A A65G U104A, the self-cleavage is 0.1. Turning to U26A U52C C113U, the self-cleavage came out at 0.43.

On to U13C U52A G53A A78U U102C U143C, for which the self-cleavage was determined as 1.76. Turning to U26C A64U A69U A94G G114A U119C A141G, the self-cleavage came to 0.02. As for U46C U81A U112C, the self-cleavage was 1.89. U20C A31G U130C: the self-cleavage was found to be 1.84. As to A31U U47C A64G U109A, the self-cleavage stood at 0. Next, U9C G74A A78G: 1.01. For U73C U96C U102C, the self-cleavage is 0. Under U12C A30G G54A A64U A142G stands 0.76; under A78G U130C A136G, 2.07. U13C G34A U52C G83A A117G: the self-cleavage is 0.51.

Take A57U U81C U119C: the self-cleavage is 0.06.

Consider U9A A22G A64U A124U, for which the self-cleavage turned out to be 0.55. Consider U39A U52A A69C A77G A129G, for which the self-cleavage is 0.17. Under G7U A78G C99U A136U stands 0.5; under U12G U81A C98A, 0.42.

For A22G U62A A77G U85A G139A, the self-cleavage came out at 0.06. Next, U45C A57G U81A A94G: 0.14. On to A64G A69G U87A U91A A138U C145U, for which the self-cleavage worked out at 0.

Turning to U20A A42G U87C C111A A117C, the self-cleavage is 0. As for A77G U87A U143A, the self-cleavage was 0.13.

In the case of A24G U47A G126A, the self-cleavage is 1.42.

For U13A C28A A42G A50G A141G, the self-cleavage stood at 0.4. For A2G U12G A64U, the self-cleavage was 0.86. Under U39A A65G A78G A117G stands 0. Under C76U G127A U134A stands 1.49; under U13A G21A U47C U100C A124U, 1.02. Next, U62C G72A U108A: 0.02; U13C U26A U108A U112C: 0.35; A6U C113U A136G: 1.26. Consider A30G A117G A141G, for which the self-cleavage amounted to 0.66. Take G33U U81A U115C A142U: the self-cleavage was found to be 2.31. Turning to U85C U104C A129U, the self-cleavage is 0.43. Regarding A2G A140G A141G, the self-cleavage is 1.63. A50G A59G U87A: the self-cleavage came out at 0.

Turning to U5C A24U U26C C113A, the self-cleavage was 1.04. As to U23C A57G A77U, the self-cleavage was 0.6. For U14C U119C U132C U134G, the self-cleavage is 0.3. Consider G44A G49A C71U, for which the self-cleavage stood at 0.65. For A59U U119A C145U, the self-cleavage was 0.93.

In the case of U52C U100C A124G A141G, the self-cleavage came to 2.7.
